Experimental data taken from PubChem BioAssay (EPA / NIEHS).
“And” between values parts separate entries of the source, which are not always exact repeats. Identical values can stand only once. For some of these results: The hits were mostly taken out for another list; the other results follow. Records with an inconclusive call do not appear. More than one record can exist for a structure, and the calls need not agree. The list shows a part of the results, in another mix than the full data. The source made the active and inactive calls. The calls were made as follows, unless noted: active = hit-call score of the fitted dose curve at least 0.9, where 1 is the maximum; inactive = score below 0.9.

Tests used:
[1] = biological target: Peroxisome proliferator-activated receptor gamma (Homo sapiens) (UniProt P37231); assay: ATG_PPARg_TRANS: Attagene TRANS-FACTORIAL HepG2 Assay for human Peroxisome Proliferator-activated Receptor-gamma (PPARg) (AID 2283007; active = hit-call score of the fitted dose curve at least 0.9, where 1 is the maximum)
Chain of UniProt P37231 (P37231 whole entry, looked up, the tested form may be a part): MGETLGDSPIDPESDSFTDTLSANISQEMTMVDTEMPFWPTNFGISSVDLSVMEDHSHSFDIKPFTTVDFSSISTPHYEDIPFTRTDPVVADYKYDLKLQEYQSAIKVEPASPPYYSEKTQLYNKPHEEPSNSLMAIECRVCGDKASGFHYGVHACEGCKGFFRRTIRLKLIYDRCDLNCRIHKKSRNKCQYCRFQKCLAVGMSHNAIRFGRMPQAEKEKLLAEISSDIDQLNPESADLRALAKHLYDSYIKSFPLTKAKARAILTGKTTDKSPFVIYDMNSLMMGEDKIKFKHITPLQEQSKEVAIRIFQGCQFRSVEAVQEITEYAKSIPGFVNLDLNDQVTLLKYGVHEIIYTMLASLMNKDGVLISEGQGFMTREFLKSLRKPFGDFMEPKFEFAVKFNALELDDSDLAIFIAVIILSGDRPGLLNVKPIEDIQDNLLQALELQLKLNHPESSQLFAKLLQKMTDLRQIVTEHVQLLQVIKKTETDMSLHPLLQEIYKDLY
Summary of the method: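 HepG2 cells transiently transfected with multiplexed GAL4-UAS reporter units and exogenous chimeric NR-Gal4 proteins; reporter mRNA quantified after 24 h compound exposure by RT-PCR, fluorescent labelling, HpaI digestion and capillary electrophoresis; gain-of-signal fitted versus DMSO baseline.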

[2] = read-out: Interleukin-1 alpha (IL1a), IL1A (gene 3552); assay: BSK_BE3C_IL1a: BioMAP Diversity Plus: BE3C Assay for Interleukin-1 alpha (IL1a) Biomarker Activity (AID 2283016); details: actives raise or lower the signal; primary human bronchial epithelial cells
Summary of the method: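 IL-1a measured by ELISA after 24 h treatment of human primary bronchial epithelial cells, with gain or loss of signal fitted versus DMSO. Parallel cultures stained with SRB gauge overt cytotoxicity.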

[3] = BSK_BE3C_SRB: Viability Assessment in the BioMAP Diversity Plus: BE3C Assay (AID 2283028); details: primary human bronchial epithelial cells;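 also: fitted both ways so AC50 may mark signal gain or loss versus DMSO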
Summary of the method: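 Cytotoxicity read-out: SRB (0.1%) staining of TCA-fixed (10%) human lung bronchial epithelial cells, absorbance 560 nm, 24 h post-dosing. Curves fitted both directions relative to DMSO.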

[4] = read-out: Vascular endothelial growth factor receptor 2 (Homo sapiens) (UniProt P35968); assay: BSK_4H_VEGFRII: BioMAP Diversity Plus: 4H Assay for Vascular endothelial growth factor receptor 2 (VEGFR2) Biomarker Activity (AID 2283031); details: actives raise or lower the signal; primary human endothelial cells (HUVEC)
Summary of the method: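 Measured by ELISA after 24 h of compound treatment: VEGFR2 on primary human umbilical vein endothelial cells, fitted in both directions relative to DMSO. Parallel cultures received SRB staining (560 nm) for overt cytotoxicity.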

[5] = read-out: Human Leukocyte Antigen - DR isotype (HLADR), HLA-DRA (gene 3122); assay: BSK_BE3C_HLADR: BioMAP Diversity Plus: BE3C Assay for Human Leukocyte Antigen - DR isotype (HLADR) Biomarker Activity (AID 2283032); details: actives raise or lower the signal; primary human bronchial epithelial cells
Summary of the method: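 Cell-surface HLA-DR ELISA readout at 24 h after dosing in the BE3C primary human lung bronchial epithelial system; gain or loss of signal against DMSO, with parallel sulforhodamine B staining of total protein for overt cytotoxicity.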

[6] = read-out: Interferon-gamma inducible Protein 10 (IP10), CXCL10 (gene 3627); assay: BSK_BE3C_IP10: BioMAP Diversity Plus: BE3C Assay for Interferon-gamma inducible Protein 10 (IP10) Biomarker Activity (AID 2283034); details: actives raise or lower the signal; primary human bronchial epithelial cells
Summary of the method: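 IP-10 quantified by ELISA in human primary bronchial epithelial cell cultures at 24 hours post-dosing. Gain or loss of signal fitted relative to DMSO; parallel SRB staining assessed overt cytotoxicity.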

[7] = read-out: Plasminogen activator inhibitor-1 (PAI1), SERPINE1 (gene 5054); assay: BSK_BE3C_PAI1: BioMAP Diversity Plus: BE3C Assay for Plasminogen activator inhibitor-1 (PAI1) Biomarker Activity (AID 2283037); details: actives raise or lower the signal; primary human bronchial epithelial cells
Summary of the method: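 PAI-1 was measured by ELISA in human primary bronchial epithelial cultures 24 h after chemical dosing, with cytotoxicity checked by SRB total-protein staining in parallel cultures. Activity was fitted in both directions relative to DMSO.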

[8] = read-out: urokinase plasminogen activator (uPA), PLAU (gene 5328); assay: BSK_BE3C_uPA: BioMAP Diversity Plus: BE3C Assay for urokinase plasminogen activator (uPA) Biomarker Activity (AID 2283038); details: actives raise or lower the signal; primary human bronchial epithelial cells
Summary of the method: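 ELISA for uPA on human primary bronchial epithelial cultures 24 h post-treatment, gain or loss against DMSO. Parallel SRB staining (0.1% after 10% TCA fixation, 560 nm) assessed overt cytotoxicity.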

[9] = BSK_CASM3C_Proliferation: Cell Proliferation Assessment in the BioMAP Diversity Plus: CASM3C Assay (AID 2283047); details: primary human coronary artery smooth muscle cells;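 also: sulforhodamine B total protein stain as relative cell number at 560 nm; sub-confluent cells exposed 48 h before staining; fitted both ways against DMSO so gain or loss of cell number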
[10] = BSK_KF3CT_SRB: Viability Assessment in the BioMAP Diversity Plus: KF3CT Assay (AID 2283069); details: primary human keratinocytes with fibroblasts
Summary of the method: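 Cytotoxicity was gauged by SRB staining (0.1% SRB, 10% TCA fixation, 560 nm) of parallel cultures at 24 h. The cells were primary human skin keratinocytes co-cultured with fibroblasts, and activity was fitted in both directions against DMSO.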

[11] = read-out: Interleukin-1 alpha (IL1a), IL1A (gene 3552); assay: BSK_KF3CT_IL1a: BioMAP Diversity Plus: KF3CT Assay for Interleukin-1 alpha (IL1a) Biomarker Activity (AID 2283070); details: actives raise or lower the signal; primary human keratinocytes with fibroblasts
Summary of the method: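 IL-1a was detected by ELISA 24 h after chemical treatment of a co-culture of human skin keratinocytes and foreskin fibroblasts. Gain or loss of signal was fitted against the DMSO baseline.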

CD40, CD40 (gene 958) = assay: BSK_LPS_CD40: BioMAP Diversity Plus: LPS Assay for CD40 Biomarker Activity (AID 2283076); details: actives raise or lower the signal; primary human HUVEC with PBMC
Summary of the method: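 In the LPS system of human endothelial cells with peripheral blood mononuclear cells, CD40 levels were read by ELISA 24 h post-treatment. Signal changes in either direction were fitted against the DMSO baseline, with parallel SRB protein staining.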

[12] = read-out: Tissue Factor, F3 (gene 2152); assay: BSK_LPS_TissueFactor: BioMAP Diversity Plus: LPS Assay for Tissue Factor Biomarker Activity (AID 2283084); details: actives raise or lower the signal; primary human HUVEC with PBMC
Summary of the method: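 Compound was added to an endothelial cell/PBMC co-culture, and after 24 h tissue factor (CD142) was read by ELISA. Gain or loss of signal was fitted against a DMSO baseline, and parallel SRB staining (560 nm) tracked overt cytotoxicity.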

[13] = biological target: human CYP4F12, CYP4F12 (gene 66002) (UniProt Q9HCS2); assay: NVS_ADME_hCYP4F12: NovaScreen (NVS) CYP450-related Enzyme Activity (ADME) Assay for human CYP4F12 (AID 2283111; active = hit-call score of the fitted dose curve at least 0.9, where 1 is the maximum)
Chain of UniProt Q9HCS2 (Q9HCS2 whole entry, looked up): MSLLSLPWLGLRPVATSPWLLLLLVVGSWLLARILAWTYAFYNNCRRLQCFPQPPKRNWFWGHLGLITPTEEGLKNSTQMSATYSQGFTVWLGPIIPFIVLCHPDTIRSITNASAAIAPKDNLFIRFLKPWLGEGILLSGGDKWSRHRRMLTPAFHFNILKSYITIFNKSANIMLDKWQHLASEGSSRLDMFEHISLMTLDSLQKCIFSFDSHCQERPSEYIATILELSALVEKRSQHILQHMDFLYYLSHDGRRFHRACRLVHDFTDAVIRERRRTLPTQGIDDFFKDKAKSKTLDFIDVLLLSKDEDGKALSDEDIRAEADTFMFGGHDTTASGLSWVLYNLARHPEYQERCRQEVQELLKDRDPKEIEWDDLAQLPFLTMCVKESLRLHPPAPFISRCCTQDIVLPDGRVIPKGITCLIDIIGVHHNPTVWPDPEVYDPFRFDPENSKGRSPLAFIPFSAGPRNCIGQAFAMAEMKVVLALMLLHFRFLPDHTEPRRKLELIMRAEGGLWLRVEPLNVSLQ

[14] = biological target: human Acid Phosphatase 1 (ACP1), ACP1 (gene 52) (UniProt P24666); assay: NVS_ENZ_hACP1: NovaScreen (NVS) Enzymatic Assay for human Acid Phosphatase 1 (ACP1) (AID 2283136; active = hit-call score of the fitted dose curve at least 0.9, where 1 is the maximum)
Chain of UniProt P24666 (P24666 whole entry, looked up): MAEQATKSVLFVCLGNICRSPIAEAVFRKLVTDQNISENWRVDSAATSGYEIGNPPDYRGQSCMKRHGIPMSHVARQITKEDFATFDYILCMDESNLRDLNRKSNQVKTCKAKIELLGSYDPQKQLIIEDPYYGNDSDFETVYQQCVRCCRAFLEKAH

[15] = biological target: human Beta-secretase (BACE), BACE1 (gene 23621) (UniProt P56817); assay: NVS_ENZ_hBACE: NovaScreen (NVS) Enzymatic Assay for human Beta-secretase (BACE) (AID 2283140; active = hit-call score of the fitted dose curve at least 0.9, where 1 is the maximum;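 also: hits are inhibitors that reduce fluorescent substrate signal versus DMSO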)
Chain of UniProt P56817 (P56817 whole entry, looked up): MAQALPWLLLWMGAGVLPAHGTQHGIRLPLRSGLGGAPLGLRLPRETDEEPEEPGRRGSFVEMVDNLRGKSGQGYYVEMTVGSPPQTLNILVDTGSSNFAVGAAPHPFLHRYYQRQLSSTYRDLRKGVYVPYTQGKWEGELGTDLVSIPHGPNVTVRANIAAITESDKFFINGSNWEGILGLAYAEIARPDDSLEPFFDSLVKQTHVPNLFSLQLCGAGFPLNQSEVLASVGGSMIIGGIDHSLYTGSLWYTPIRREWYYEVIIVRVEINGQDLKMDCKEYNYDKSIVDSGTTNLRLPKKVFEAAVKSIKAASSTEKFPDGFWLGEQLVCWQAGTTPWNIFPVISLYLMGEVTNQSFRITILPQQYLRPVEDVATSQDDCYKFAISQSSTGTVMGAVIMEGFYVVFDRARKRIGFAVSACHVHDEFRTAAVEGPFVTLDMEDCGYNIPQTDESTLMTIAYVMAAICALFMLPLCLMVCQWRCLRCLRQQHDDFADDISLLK

[16] = biological target: human AKT serine/threonine Kinase 2 (AKT2), AKT2 (gene 208) (UniProt P31751); assay: NVS_ENZ_hAKT2: NovaScreen (NVS) Enzymatic Assay for human AKT serine/threonine Kinase 2 (AKT2) (AID 2283141; active = hit-call score of the fitted dose curve at least 0.9, where 1 is the maximum)
Chain of UniProt P31751 (P31751 whole entry, looked up): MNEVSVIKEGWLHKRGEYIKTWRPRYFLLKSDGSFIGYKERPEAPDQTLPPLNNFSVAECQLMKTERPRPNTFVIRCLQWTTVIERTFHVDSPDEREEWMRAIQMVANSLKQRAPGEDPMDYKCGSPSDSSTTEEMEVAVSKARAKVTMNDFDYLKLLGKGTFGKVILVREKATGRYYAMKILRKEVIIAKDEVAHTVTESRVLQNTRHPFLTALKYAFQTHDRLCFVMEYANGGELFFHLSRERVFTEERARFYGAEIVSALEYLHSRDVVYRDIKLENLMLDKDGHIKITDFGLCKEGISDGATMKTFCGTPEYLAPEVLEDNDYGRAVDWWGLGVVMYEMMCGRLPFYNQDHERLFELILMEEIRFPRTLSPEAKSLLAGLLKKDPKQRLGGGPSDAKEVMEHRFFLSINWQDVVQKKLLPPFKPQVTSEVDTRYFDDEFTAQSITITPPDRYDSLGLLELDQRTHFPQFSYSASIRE
Summary of the method: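 Cell-free fluorescence/electrophoretic mobility shift readout of recombinant human AKT2 activity, 1 h after chemical dosing. Duplicate primary screen at 25 uM, then singleton concentration-response up to 50 uM; loss of signal versus DMSO baseline.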

[17] = biological target: human Fibroblast Growth Factor Receptor 1 (FGFR1), FGFR1 (gene 2260) (UniProt P11362); assay: NVS_ENZ_hFGFR1: NovaScreen (NVS) Enzymatic Assay for human Fibroblast Growth Factor Receptor 1 (FGFR1) (AID 2283159; active = hit-call score of the fitted dose curve at least 0.9, where 1 is the maximum;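 also: hits lower the signal so potencies describe inhibitors of the kinase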)
[18] = biological target: human Mitogen- and Stress-activated Protein Kinase-1 (Msk1), RPS6KA5 (gene 9252) (UniProt O75582); assay: NVS_ENZ_hMsk1: NovaScreen (NVS) Enzymatic Assay for human Mitogen- and Stress-activated Protein Kinase-1 (Msk1) (AID 2283187; active = hit-call score of the fitted dose curve at least 0.9, where 1 is the maximum)
Summary of the method: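 Chemicals first run in duplicate at 25 uM, with actives followed up in singleton concentration series to 50 uM maximum. Enzyme activity came from substrate/product mobility-shift separation with fluorescence detection after 1 h incubation of the recombinant protein.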

[19] = biological target: Serine/threonine-protein phosphatase PP1-alpha catalytic subunit (Homo sapiens) (UniProt P62136); assay: NVS_ENZ_hPPP1CA: NovaScreen (NVS) Enzymatic Assay for human Protein Phosphatase 1 Aatalytic subunit Alpha (PPP1CA) (AID 2283200; active = hit-call score of the fitted dose curve at least 0.9, where 1 is the maximum)
Chain of UniProt P62136 (P62136 whole entry, looked up): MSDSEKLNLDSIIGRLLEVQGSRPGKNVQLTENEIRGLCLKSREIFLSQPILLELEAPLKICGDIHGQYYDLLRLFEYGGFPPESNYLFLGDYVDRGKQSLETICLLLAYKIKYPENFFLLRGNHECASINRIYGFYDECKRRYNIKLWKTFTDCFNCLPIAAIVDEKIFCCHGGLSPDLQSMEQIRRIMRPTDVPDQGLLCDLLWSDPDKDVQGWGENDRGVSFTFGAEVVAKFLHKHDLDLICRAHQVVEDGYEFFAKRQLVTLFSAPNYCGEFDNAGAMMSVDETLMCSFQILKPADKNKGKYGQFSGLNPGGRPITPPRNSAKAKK
Summary of the method: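 Chemicals were first screened in duplicate at 25 uM, and those passing threshold (e.g. 30% inhibition) were run as concentration series to 50 uM. Cell-free recombinant protein, 1.33 h read, fluorescent substrate/product mobility-shift detection, normalised to DMSO.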

[20] = biological target: human Vascular Endothelial Growth Factor Receptor 3 (VEGFR3), FLT4 (gene 2324) (UniProt P35916); assay: NVS_ENZ_hVEGFR3: NovaScreen (NVS) Enzymatic Assay for human Vascular Endothelial Growth Factor Receptor 3 (VEGFR3) (AID 2283229; active = hit-call score of the fitted dose curve at least 0.9, where 1 is the maximum)
Chain of UniProt P35916 (P35916 whole entry, looked up): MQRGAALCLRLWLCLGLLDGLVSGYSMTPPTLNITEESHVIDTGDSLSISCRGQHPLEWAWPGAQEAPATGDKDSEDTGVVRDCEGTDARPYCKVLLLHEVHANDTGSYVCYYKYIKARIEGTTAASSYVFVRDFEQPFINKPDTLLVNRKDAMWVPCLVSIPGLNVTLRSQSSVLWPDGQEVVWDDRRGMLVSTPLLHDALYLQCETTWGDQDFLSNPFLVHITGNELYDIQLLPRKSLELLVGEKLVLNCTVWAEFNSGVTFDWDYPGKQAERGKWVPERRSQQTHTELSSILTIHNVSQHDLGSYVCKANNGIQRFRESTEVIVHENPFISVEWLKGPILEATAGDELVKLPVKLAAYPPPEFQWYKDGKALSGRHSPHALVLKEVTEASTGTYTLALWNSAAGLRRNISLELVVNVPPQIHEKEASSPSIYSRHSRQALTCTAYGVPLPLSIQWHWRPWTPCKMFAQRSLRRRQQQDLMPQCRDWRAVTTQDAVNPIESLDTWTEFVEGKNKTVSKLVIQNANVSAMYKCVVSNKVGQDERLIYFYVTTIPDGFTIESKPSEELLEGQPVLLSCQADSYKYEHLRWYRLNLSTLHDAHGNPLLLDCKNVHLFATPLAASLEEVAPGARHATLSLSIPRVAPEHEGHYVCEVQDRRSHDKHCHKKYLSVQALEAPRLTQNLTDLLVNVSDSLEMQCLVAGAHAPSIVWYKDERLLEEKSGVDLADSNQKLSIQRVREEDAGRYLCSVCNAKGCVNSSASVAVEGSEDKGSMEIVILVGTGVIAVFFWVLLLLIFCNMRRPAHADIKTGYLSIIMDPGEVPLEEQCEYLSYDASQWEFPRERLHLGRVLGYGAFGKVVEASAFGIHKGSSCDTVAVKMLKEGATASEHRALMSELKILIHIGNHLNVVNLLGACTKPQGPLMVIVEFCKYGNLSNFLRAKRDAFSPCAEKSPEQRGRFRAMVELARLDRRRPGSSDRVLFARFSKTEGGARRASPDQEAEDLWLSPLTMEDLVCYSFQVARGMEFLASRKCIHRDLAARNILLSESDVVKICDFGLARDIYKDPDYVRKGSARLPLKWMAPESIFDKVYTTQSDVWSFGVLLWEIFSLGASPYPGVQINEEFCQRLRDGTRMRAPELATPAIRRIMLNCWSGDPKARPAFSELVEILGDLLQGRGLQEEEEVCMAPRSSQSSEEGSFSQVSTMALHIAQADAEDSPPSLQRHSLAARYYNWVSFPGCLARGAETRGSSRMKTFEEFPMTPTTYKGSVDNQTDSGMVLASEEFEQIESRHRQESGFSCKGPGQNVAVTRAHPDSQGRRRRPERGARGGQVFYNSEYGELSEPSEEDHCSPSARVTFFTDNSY
Summary of the method: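 Chemicals first run in duplicate at 25 uM, with actives re-tested in concentration series to a top of 50 uM. Recombinant VEGFR3 activity measured after 1 h via fluorescence with mobility-shift product separation; inhibition fitted relative to DMSO.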

[21] = biological target: human Serotonin, 5-Hydroxytryptamine Receptor 7 (5HT7), HTR7 (gene 3363) (UniProt P34969); assay: NVS_GPCR_h5HT7: NovaScreen (NVS) G Protein-Coupled Receptor Assay for human Serotonin, 5-Hydroxytryptamine Receptor 7 (5HT7) (AID 2283255; active = hit-call score of the fitted dose curve at least 0.9, where 1 is the maximum;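 also: hits reduce specific radioligand binding relative to DMSO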)
Chain of UniProt P34969 (P34969 whole entry, looked up): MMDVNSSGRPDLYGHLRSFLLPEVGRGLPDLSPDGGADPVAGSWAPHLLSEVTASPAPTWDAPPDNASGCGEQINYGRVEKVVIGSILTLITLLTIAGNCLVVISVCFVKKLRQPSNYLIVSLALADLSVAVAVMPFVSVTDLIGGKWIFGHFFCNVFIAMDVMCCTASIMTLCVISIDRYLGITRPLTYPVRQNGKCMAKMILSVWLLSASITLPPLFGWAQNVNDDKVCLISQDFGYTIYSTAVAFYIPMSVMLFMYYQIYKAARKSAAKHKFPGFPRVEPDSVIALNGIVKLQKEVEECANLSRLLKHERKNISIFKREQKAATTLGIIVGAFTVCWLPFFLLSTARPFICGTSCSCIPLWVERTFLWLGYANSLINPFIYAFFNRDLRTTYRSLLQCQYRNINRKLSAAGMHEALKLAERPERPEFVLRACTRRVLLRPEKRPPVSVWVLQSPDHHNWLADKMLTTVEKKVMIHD
Summary of the method: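 Filter-bound radioactivity counted after 1 h, with loss of specific radioligand binding fitted against DMSO. Membrane protein came from CHO cells expressing human 5HT7. Chemicals were tested first at 25 uM in duplicate, then in concentration series if active.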

[22] = biological target: Retinoic acid receptor RXR-alpha (Homo sapiens) (UniProt P19793); assay: OT_NURR1_NURR1RXRa_1440: Odyssey Thera (OT) 24-hour HEK293T Protein Complementation Assay for Nurr1/retinoid X receptor (RXR) (AID 2283386; active = hit-call score of the fitted dose curve at least 0.9, where 1 is the maximum)
Chain of UniProt P19793 (P19793 whole entry, looked up, the tested form may be a part): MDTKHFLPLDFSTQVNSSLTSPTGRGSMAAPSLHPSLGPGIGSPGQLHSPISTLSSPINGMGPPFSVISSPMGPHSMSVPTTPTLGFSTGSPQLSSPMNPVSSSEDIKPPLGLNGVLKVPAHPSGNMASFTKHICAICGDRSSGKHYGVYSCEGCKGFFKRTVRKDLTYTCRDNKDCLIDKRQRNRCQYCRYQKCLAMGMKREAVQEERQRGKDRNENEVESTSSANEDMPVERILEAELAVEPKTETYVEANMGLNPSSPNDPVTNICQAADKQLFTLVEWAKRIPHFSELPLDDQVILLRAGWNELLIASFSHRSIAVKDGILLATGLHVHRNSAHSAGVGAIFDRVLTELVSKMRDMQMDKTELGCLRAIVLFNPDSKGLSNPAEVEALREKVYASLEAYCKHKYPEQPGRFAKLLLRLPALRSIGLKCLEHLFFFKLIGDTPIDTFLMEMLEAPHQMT
Summary of the method: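 Gain in fluorescence, fitted relative to DMSO, reflects Nurr1–RXRα association in HEK293T cells after 24 h dosing. Bait and prey are each linked to a reporter-protein fragment that reassembles on interaction.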

[23] = read-out: Fatty acid synthase (Homo sapiens) (UniProt P49327); assay: LTEA_HepaRG_FASN: Life Technologies and Expression Analysis (LTEA) Assay for Fatty Acid Synthase (FASN) using HepaRG (AID 2283448); details: actives raise or lower the signal; mRNA level, 48 h;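 also: differentiated human HepaRG liver cells in serum-free induction medium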
Summary of the method: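 FASN transcript measured by TaqMan qRT-PCR, normalised to three housekeeping genes, after 48 h chemical exposure of HepaRG cells. Eight-point half-log series from 100 uM in 0.5% DMSO, duplicates; gain or loss fitted against vehicle.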

[24] = read-out: Peroxisomal acyl-coenzyme A oxidase 1 (ACOX1) gene, ACOX1 (gene 51); assay: LTEA_HepaRG_ACOX1: Life Technologies and Expression Analysis (LTEA) Assay for Peroxisomal acyl-coenzyme A oxidase 1 (ACOX1) gene using HepaRG (AID 2283467); details: actives raise or lower the signal; mRNA level, 48 h
Summary of the method: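 ACOX1 transcript levels were quantified by TaqMan qRT-PCR against three housekeeping genes after 48 h chemical exposure of differentiated human HepaRG cells. Exposure used eight half-log steps topping at 100 uM, 0.5% DMSO vehicle, in duplicate. Bidirectional curve fits were made relative to DMSO.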

Q: Which results are given for `O=S(=O)(O)C(F)(F)C(F)(F)C(F)(F)C(F)(F)C(F)(F)C(F)(F)C(F)(F)C(F)(F)F`?
A: AC50 [1]: active: 33.4 µM and active: 32.8 µM; outcome [2]: inactive; AC50 [3]: active: 18 µM; outcome [4]: inactive; AC50 [5]: active: 10.4 µM; AC50 [6]: active: 22.3 µM; AC50 [7]: active: 12.5 µM; AC50 [8]: active: 22.5 µM; outcome [9]: inactive; outcome [10]: inactive; outcome [11]: inactive; AC50 (CD40, CD40 (gene 958)): active: 29.8 µM; outcome [12]: inactive; AC50 [13]: active: 1.81 µM; AC50 [14]: active: 19.5 µM; AC50 [15]: active: 9.81 µM and active: 467 nM; AC50 [16]: active: 38.6 µM; AC50 [17]: active: 17.2 µM; AC50 [18]: active: 41 µM; outcome [19]: inactive; AC50 [20]: active: 14.4 µM; AC50 [21]: active: 17.3 µM; outcome [22]: inactive; AC50 [23]: active: 78.5 µM; AC50 [24]: active: 13.2 µM
